Out of some 45,000 compounds screened, about 65 (0.1%) were called active. Calls follow the shape of the dose curve; as a rule, active = well fitted activation curve with a large enough effect; inconclusive = small, poorly fitted or top-dose-only effect; inactive = no such curve, though single readings can be large or run the other way. The list shows a part of the results.
Molecular target: Galactocerebrosidase (Homo sapiens) (UniProt P54803)
Experiment: A Novel Cell-Based Assay to Identify Small Molecules for B -Galactocerebrosidase; also: 0% is about no effect; nearly all actives have a fitted effect of over 65% in size
Details: 145M-Twi-hGALC-G270D cells (Twitcher mouse brain line with human GALC G270D), HMU-beta-Gal fluorescence, 48 h; series mostly up to 57.5 µM; activation: at the top concentration
How it was run: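 Live 145M-Twi cells (Twitcher mouse brain-derived, GALC-null) stably expressing human GALC-G270D, with a wild-type GALC line, were compound-treated. Residual GALC activity was then read as fluorescence from 0.1 mM final HMU-β-gal at pH 5.2; higher signal means activation.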

UniProt P54803, sequence (P54803 whole entry, looked up): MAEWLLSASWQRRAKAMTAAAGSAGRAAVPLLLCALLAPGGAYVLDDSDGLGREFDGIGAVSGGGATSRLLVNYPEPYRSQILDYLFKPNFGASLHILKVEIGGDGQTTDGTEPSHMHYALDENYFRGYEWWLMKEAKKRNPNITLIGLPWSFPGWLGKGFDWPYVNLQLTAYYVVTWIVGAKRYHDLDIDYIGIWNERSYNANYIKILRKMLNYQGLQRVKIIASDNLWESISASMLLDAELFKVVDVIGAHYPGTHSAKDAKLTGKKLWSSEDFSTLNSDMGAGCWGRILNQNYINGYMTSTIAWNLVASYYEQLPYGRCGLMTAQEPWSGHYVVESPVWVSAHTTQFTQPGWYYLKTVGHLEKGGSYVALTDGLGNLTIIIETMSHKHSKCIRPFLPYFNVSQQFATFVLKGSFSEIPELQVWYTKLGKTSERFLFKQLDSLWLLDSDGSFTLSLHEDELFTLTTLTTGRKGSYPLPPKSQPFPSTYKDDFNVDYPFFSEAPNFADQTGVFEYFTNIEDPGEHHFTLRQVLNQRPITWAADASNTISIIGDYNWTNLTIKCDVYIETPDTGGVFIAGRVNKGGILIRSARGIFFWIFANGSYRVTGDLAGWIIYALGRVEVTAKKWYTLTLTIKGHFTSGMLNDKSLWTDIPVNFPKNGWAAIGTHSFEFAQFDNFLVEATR

SMILES	activation
Cc1cccc(NC(=O)CSc2nnc(-c3cccs3)o2)c1	inactive: 1.89%
Cc1cccc(NC(=O)C(c2ccccc2)N2Cc3ccccc3C2=O)c1C (stereo unspecified)	inactive: -4.25%
Cc1noc2ncnc(Nc3ccc(F)cc3)c12	inactive: -12.2%
Cn1ncc(C(=O)N2CCN(c3ccccc3)CC2)c1C1CCN(C(=O)OC(C)(C)C)CC1	inactive: 1.15%
O=C(O)CCCc1ccccc1	inactive: -15.7%
CCOc1ccc(-c2cc3nc(C4CCN(C(=O)OC(C)(C)C)CC4)c(C(=O)Nc4ccc(C(=O)OC)cc4)cn3n2)cc1	inactive: -5.96%
Cc1ccc(CCNC(=O)NCc2noc3ccc(C)cc23)cc1	inactive: -12.2%
Cc1cc(F)ccc1NC(=O)C1CCCN(c2nnc(-n3c(C)ccc3C)s2)C1 (stereo unspecified)	inactive: -11.1%
COc1ccc(NC(=O)Cn2c(=O)nc(-c3ccccc3)c3ccccc32)cc1OC	inactive: -3.27%
Cc1cc(C)cc(N2C(=O)CS(=O)(=O)C23C(=O)N(Cc2ccc(F)cc2)c2ccc(C)cc23)c1 (stereo unspecified)	inactive: -27.9%
CSc1ccc(CCNC(=O)C(C)n2nc(C)c3c(C)n(-c4ccccc4)nc3c2=O)cc1 (stereo unspecified)	inactive: -16%
Cc1cc(C)n2nc(CNC(=O)c3cccc(Cl)c3)nc2n1	inactive: -18.9%
Cc1ccc(NC(=O)COc2ccc3oc4c(c3c2)CCCC4)c(C)c1	inactive: -14.2%
CN(C)c1ccc(-c2nc(-c3ccccn3)no2)cc1[N+](=O)[O-]	inactive: -44%
Cc1ccc(CCNC(=O)Cn2nc(C)c3c(C)n(-c4ccc(C)cc4)nc3c2=O)cc1	inactive: 3.39%
O=C(NCc1ccccc1Cl)c1ccc(CSCc2ccccc2Cl)o1	inactive: -10.4%
COc1ccc(OC)c(NC(=O)CSc2nnc3ccc4ccccc4n23)c1	inactive: -15%
Cc1ccc(CSc2nnc(CCNC(=O)OC(C)(C)C)o2)cc1	inactive: -1.55%
Cc1ccc(-n2ncc(C(=O)NCc3cccs3)c2C2CCN(C(=O)OC(C)(C)C)CC2)c(C)c1	inactive: -17.2%
COc1ccc(NC(=O)C2=C(C)Nc3nc(SCc4ccccc4C)nn3C2c2cc(OC)c(O)c(OC)c2)cc1 (stereo unspecified)	inactive: -9.91%
CCC(Sc1nc2cc(OC)c(OC)cc2c2nc(-c3ccccc3)nn12)C(=O)Nc1cccc(C)c1 (stereo unspecified)	inactive: -19.1%
CN(Cc1ccccc1)C(=O)Nc1ccc2c(c1)N(C)C(=O)c1ccccc1S2	inactive: -19.3%
COc1ccccc1OC(C)C(=O)Nc1ccc(-c2nc3ccccc3s2)cc1 (stereo unspecified)	inactive: 4.3%
COc1ccc(-c2noc(CC(=O)Nc3ccc(F)cc3F)n2)cc1	inactive: -13.5%

SMILES	activation
Cc1ccc(-c2nnc(Nc3cccc(O)c3)c3ccccc23)cc1S(=O)(=O)N1CCOCC1	inactive: -19.7%
CCc1ccc(NC(=O)CCn2nc(-c3ccccc3OC)c3c(C)cc(C)nc32)cc1	inactive: -6.19%
COc1ccc(NC(=O)CCn2c(=O)c3cccn3c3cccnc32)c(OC)c1	inactive: 0.697%
CCC(C(=O)NCc1ccccc1)n1nc(C)c2sc3ccccc3c2c1=O (stereo unspecified)	inactive: -7.45%
CC(C)Nc1ccc(-c2nc(-c3ccco3)no2)cc1[N+](=O)[O-]	inactive: -7.17%
Cc1ccc(C2c3[nH]c4ccccc4c3CCN2C(=O)c2cccc(C)c2)cc1 (stereo unspecified)	inactive: -1.24%
CCC(C)NC(=O)c1ccccc1NC(=O)CN1C(=O)c2cccc3cccc1c23 (stereo unspecified)	inactive: 0.512%
CC(C)CCOC(=O)c1ccc(N(C)C)cc1	inactive: -21.6%
Cc1ccc2nc(N3CCC(C(=O)N4CCN(c5cccc(Cl)c5)CC4)CC3)[nH]c2c1	inactive: -5.53%
CCOCCCNC(=O)C(c1ccc(C)cc1)N(Cc1ccc2c(c1)OCO2)C(=O)c1ccc(NC(C)=O)cc1 (stereo unspecified)	inactive: 0.845%
COc1ccc(-c2cc(C(=O)OC(C)C(=O)c3ccccc3)c3cccc(Cl)c3n2)cc1 (stereo unspecified)	inactive: -15.8%
c1ccc(Nc2c(-c3c[nH]c4ccccc34)nc3ccccn23)cc1	inactive: -4.7%
Cc1cccc(NC(=O)c2nnn(CC(=O)Nc3ccc(C(C)C)cc3)c2N)c1C	inactive: -16.1%
COc1cc2cc(CNc3ccc(C)cc3)c(=O)n(CC(=O)Nc3ccc(F)cc3F)c2cc1OC	inactive: -33.4%
COc1cc(C(=O)NCC(c2cccs2)S(=O)(=O)c2ccc(F)cc2)cc(OC)c1OC (stereo unspecified)	inactive: 6.29%
CCOC(=O)c1c(C)[nH]c(CCC(=O)Nc2ccc(C)c(F)c2)c1C	inactive: -18.2%
CC(C)NC(=O)CN1C(=O)COc2ccc(S(=O)(=O)N3CCCCCC3)cc21	inactive: 0.252%
CC1CC(OC(=O)C(O)c2ccccc2)CC(C)(C)N1C (stereo unspecified)	inactive: -17.2%
Cc1cccc(OCC(=O)Nc2ccc(Cl)c(-c3nc4ncccc4o3)c2)c1C	inactive: 6.41%
CCOc1ccccc1NC(=O)CN(C)S(=O)(=O)c1ccc2nc(C)sc2c1	inactive: -6%
Cc1nc(Oc2ccc(F)cc2Cl)c2oc3ccccc3c2n1	inactive: -16.5%
CCC(=O)N1CCc2cc(Br)cc(S(=O)(=O)CCC(=O)NCc3ccc(Cl)cc3)c21	inactive: -14.7%
Cc1ccc(C)c(NC(=O)CN2C(=O)C(C)(C)c3ccccc32)c1	inactive: -24.9%
O=C(Nc1sc2c(c1C(=O)NCc1ccco1)CCCC2)c1cc(=O)c2ccccc2o1	inactive: -14.4%

SMILES	activation
COc1ccc(Br)cc1CNC(=O)c1cc2n(n1)CCCN(Cc1ccc(C)cc1)C2=O	inactive: -4.8%
Cc1ccc(NC(=O)CCc2nnc3n(C)c(=O)c4sccc4n23)cc1C	inactive: -4.84%
CSC1=NC2(CCN(C(=O)NC3CCCCC3)CC2)N=C1c1ccc(C)c(C)c1	inactive: 3.86%
Cc1ccc(CNC(=O)CC(C)S(=O)(=O)c2cc3c(cc2C)NC(=O)CO3)cc1 (stereo unspecified)	inactive: -8.38%
CC(C)Oc1ccc(C(=O)N(Cc2ccco2)c2ccccn2)cc1	inactive: -15.1%
COC(=O)c1scc(-c2ccc(C)cc2)c1S(=O)(=O)N1CCN(c2cccc(OC)c2)CC1	inactive: -11.3%
Cc1ccc(Sc2c(C)nn(C(C)(C)C)c2OC(=O)C(C)(C)C)cc1	inactive: -20%
CCc1nnc(SC(CC)C(=O)Nc2cccc(OC)c2)c2cc3oc(C)cc3n12 (stereo unspecified)	inactive: -6.61%
Fc1ccc(Nc2c3c(nc4ccccc24)CCC3)cc1	inactive: -9.75%
CCc1ccc(CN(Cc2ccco2)c2cnc(S(C)(=O)=O)nc2C(=O)Nc2ccccc2Cl)cc1	inactive: -2.83%
CCN(C(=O)C1CCCN(S(=O)(=O)c2c(C)noc2/C=C/N(C)C)C1)c1cccc(C)c1 (stereo unspecified)	inactive: -11%
CCN(c1ccccc1)c1nnc(NC(=O)Nc2ccccc2F)s1	inactive: -11.4%
Cc1ccc(NC(=O)Nc2ccc3snnc3c2)cc1C	inactive: -31.9%
O=C(NCc1ccco1)c1ccc2c(c1)N(Cc1ccc(Cl)cc1)C(=O)c1ccccc1S2=O (stereo unspecified)	inactive: -5.86%
CCOC(=O)c1ccc(NC(=O)CC2C(=O)OCCN2CC)cc1 (stereo unspecified)	inactive: -4.55%
Cc1cccc(Cn2c(SCc3ccc(C(=O)NCCc4ccccc4)cc3)nc3ccncc32)c1	inactive: 4.6%
CCc1cccc(C)c1NC(=O)Cn1ccn(-c2cccc(OC)c2)c(=O)c1=O	inactive: -10%
O=C(CCc1nc(CN2CCN(S(=O)(=O)c3ccc(Cl)cc3)CC2)no1)N1CCCCC1	inactive: -17.3%
O=C(CCC1N=C2c3ccccc3N=C(SCc3ccc(F)cc3)N2C1=O)NCc1ccc(F)cc1 (stereo unspecified)	inactive: -1.08%
COc1ccc(-c2cc3nc(C)c(CCC(=O)Nc4ccccc4C(C)=O)c(C)n3n2)c(OC)c1	inactive: -28.9%
COc1ccc(-n2c(=O)c3c(c4cc(OC)ccc4n3C)n(Cc3cccc(OC)c3)c2=O)cc1	inactive: 6.87%
CCCC1=Nc2cc(C(=O)NCc3ccc(OC)cc3)ccc2Sc2ccc(C)cc21	inactive: -25%
Fc1cccc(-n2ncc3c2ncn2nc(COc4ccc(Cl)cc4)nc32)c1	inactive: -6.56%
O=C(CSCc1cccc(F)c1)NCc1ccccc1	inactive: 6.64%

SMILES	activation
O=C(NCCc1c[nH]c2ccccc12)c1cccnc1	inactive: -17.6%
CN1CCc2c(sc3c2C(=O)NC(c2ccc(OC(=O)c4ccc(C(C)(C)C)cc4)cc2)N3)C1 (stereo unspecified)	inactive: -6.12%
CCC(C(=O)Nc1cc(OC)cc(OC)c1)n1nc(-c2ccc(C)c(C)c2)ccc1=O (stereo unspecified)	inactive: -17.2%
Cc1nc2scc(C)n2c(=O)c1S(=O)(=O)Nc1ccc(N2CCOCC2)c(Cl)c1	inactive: -46.8%
CCOc1ccc(-c2nc(CSCC(=O)N3CCN(c4ccc(F)cc4)CC3)c(C)o2)cc1	inactive: -29.4%
C1CCN2C[C@@H]3C[C@@H](CN4CCCC[C@@H]34)[C@H]2C1	inactive: -8.87%
CCOc1ccc(C(=O)NCCn2cc(SCC(=O)Nc3ccc4c(c3)OCCO4)c3ccccc32)cc1	inactive: 5.24%
COc1cc(NC(=O)Cn2c(=O)n(Cc3ccco3)c(=O)c3sc4ccccc4c32)cc(OC)c1	inactive: -17.2%
COCCCNc1oc(/C=C/c2cc(OC)c(OC)c(OC)c2)nc1C#N	inactive: -12.6%
CCN(CC)C(=O)c1sc2c(c1C)c(=O)n(-c1ccc(Cl)c(Cl)c1)c(=O)n2Cc1ccccc1C#N	inactive: 12.1%
Cc1cc(-c2ccc(C)c(S(=O)(=O)N3CCN(c4cccc(C(F)(F)F)c4)CC3)c2)on1	inactive: -19.8%
Cc1cccc(CCNC(=O)c2ccc3c(c2)N(Cc2ccccc2F)C(=O)c2ccccc2S3)c1	inactive: -8.32%
Cc1ccc(Oc2c(C(F)(F)F)oc3c(CN4CCC(C)CC4)c(O)ccc3c2=O)cc1	inactive: -13.6%
CCc1cccc(NC(=O)CCC(=O)N2CCSc3ccccc32)c1	inactive: -3.93%
CN(C)c1ccc(-c2nc(-c3cc4cc(Cl)ccc4oc3=O)cs2)cc1	inactive: -2.27%
Cc1ccc(N2CCN(C(=O)c3c(C)oc4ncn(CC(C)C)c(=O)c34)CC2)c(C)c1	inactive: -16.4%
Cc1ccc(C)c(N2CCN(C(=O)C3CCN(c4nc5ccc(C)cc5[nH]4)CC3)CC2)c1	inactive: -1.8%
Cc1cccc(NC(=O)CSc2ncc3c(n2)-c2ccccc2N(Cc2ccc(F)cc2)S3(=O)=O)c1C	inactive: -13.2%
CC(=O)N1CCCc2cc(S(=O)(=O)N3CCC(C(=O)Nc4cccc(Cl)c4C)CC3)ccc21	inactive: -16.7%
Cc1cc2ccccc2n1-c1ccc(C(=O)N2CCC(C(=O)NCc3ccc(Cl)cc3)CC2)s1	inactive: -3.5%
CCN(CC)C(=O)c1c(-c2ccccc2)c(-c2ccccc2)nn(C)c1=O	inactive: -4.22%
CCc1ccc(C(=O)c2cn(CC(=O)Nc3cc(C)ccc3C)c3nc(C)ccc3c2=O)cc1	inactive: 13.1%
O=C(CSc1nnc(-c2cccs2)o1)Oc1ccccc1	inactive: 10.5%
COc1ccc(N2CCN(C(=O)CCn3nc(C)c(S(=O)(=O)N4CCCC4)c3C)CC2)cc1	inactive: 9.19%

Reference: PubChem BioAssay AID1159614 (National Center for Advancing Translational Sciences (NCATS), 2016)
